# The other results are listed elsewhere or left out. The full chains were built here from the parent and the listed change. Inactive controls read about 0.05.
# B1: TEV protease; numbered along this chain (parent)
# chain: MGESLFKGPRDYNPISSSICHLTNESDGHTTSLYGIGFGPFIITNKHLFRRNNGTLVVQSLHGVFKVKDTTTLQQHLVDGRDMIIIRMPKDFPPFPQKLKFREPQREERICLVTTNFQTKSMSSMVSDTSCTFPSGDGIFWKHWIQTKDGQCGSPLVSTRDGFIVGIHSASNFTNTNNYFTSVPKNFMELLTNQEAQQWVSGWRLNADSVLWGGHKVFMVKPEEPFQPVKEATQL
# Variants of: B1
# Experiment: raw area under fraction-flipped curve 0-4 h after induction (AUC4h, not background-subtracted), DNA-recorder readout of cleavage of the substrate (dimensionless); higher = more cleavage of the substrate by the protease variant
# Details: temperature: 34 °C; time window: 0-4 h after rhamnose induction
# Procedure: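 In vivo DNA recorder in E. coli TOP10(DE3) ΔrhaA at 34 °C. Each TEVp single-site mutant (parent TEVp 0) is paired with a single-site variant of the 7-mer TEVs (canonical ENLYFQ|S). The substrate sits between flexible linkers in a Bxb1-sfGFP-TEVs-SsrA fusion, so cleavage stabilises Bxb1 and speeds flipping of a recombination array, read by NGS. The value is the raw area under the fraction-flipped curve over 0-4 h after rhamnose induction (AUC4h), with ≥20 reads per time point. It is not background-subtracted; inactive controls average about 0.047.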
# 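Further: Bxb1 expression induced with 0.2% (w/v) L-rhamnose at OD600 near 0.5, cultures sampled hourly, flipped fraction per protease–substrate barcode pair counted by paired-end Illumina sequencing.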
Variant,area with substrate ENLYFQA,area with substrate ENLYFQC,area with substrate ENLYFQI,area with substrate ENLYFQK,area with substrate ENLYFQM,area with substrate ENLYFQN,area with substrate ENLYFQP,area with substrate ENLYFQR,area with substrate ENLYFQS,area with substrate ENLYFQT,area with substrate ENLYFQV,area with substrate ENLYFQY,area with substrate ENLYFQD,area with substrate ENLYFQF,area with substrate ENLYFQG,area with substrate ENLYFQH,area with substrate ENLYFQL,area with substrate ENLYFQQ,area with substrate ENLYFQW,area with substrate ENLYFQE
P225F,0.0919,0.088,0.0549,0.069,0.0818,0.0686,0.057,0.0678,0.0892,0.07,0.036,0.0485,,,,,,,,
H21D,,0.0893,,0.0573,0.0598,0.0359,0.0494,0.0374,0.0756,0.0622,,0.0571,0.0548,0.0719,0.0674,0.0553,0.0542,0.0551,0.0489,
S4M,,0.102,0.0587,0.0866,0.0656,0.0755,0.0656,0.0533,0.082,0.0682,0.0695,0.0695,,,0.0756,,0.0469,0.061,0.0579,
N206H,0.109,0.0639,0.0629,0.0637,0.0909,0.0716,,0.0574,0.0911,0.0568,0.0695,,0.0533,,,,0.0374,0.0692,0.0654,
N206G,0.0983,0.109,0.059,0.0571,,0.0669,,0.0541,0.1,0.0439,,0.0645,0.0464,,0.097,,0.0623,,0.0788,
Q234I,0.0881,0.0833,,,,,,,0.0937,0.102,,0.0667,,,0.113,,0.0532,0.0429,,0.0593
Q234K,0.119,0.118,,,0.138,0.0733,0.0608,0.0614,0.109,0.0679,0.0542,,0.0762,0.101,0.104,0.0824,0.0507,0.0665,0.0683,
W212K,0.0778,0.0753,0.0663,0.0567,0.0567,0.0632,,0.042,0.0721,0.0639,,0.0527,,,0.0702,0.072,0.0556,,0.0542,0.0496
P222C,0.0838,0.111,0.0738,,0.0561,0.0699,0.0567,0.0275,0.0946,,0.0588,0.0665,0.0595,0.0626,0.0853,0.0692,0.0638,0.0642,0.0612,
W203Y,0.132,0.0617,0.0566,0.0673,,0.0725,,,0.0846,,,0.0601,,0.0508,0.0709,0.0737,,,0.0617,
V217Q,0.0585,,0.0426,0.0523,0.0671,0.0725,,0.0496,0.0589,,0.0466,0.0651,,0.0548,0.0566,0.0711,0.0617,0.0719,0.0568,
E223T,0.0977,,,0.0647,0.0731,,0.0852,0.0602,0.0976,0.0601,0.0553,0.069,0.0814,0.0448,0.0985,,0.0589,,0.0784,
R204T,0.119,0.159,0.0596,0.0632,0.103,0.104,,0.0682,0.111,0.065,0.0613,0.0759,0.0827,,0.0969,0.111,0.0586,,0.073,0.0768
F187Q,0.0602,0.0866,0.0462,0.0548,0.0602,0.0427,0.0587,0.0361,0.0646,0.0524,0.0431,0.0639,,0.0488,0.0742,0.0439,0.0542,,0.0459,
T23S,,0.0904,0.0606,0.0773,0.0816,0.076,0.0773,0.0801,0.0959,0.059,0.0518,0.0695,0.0802,0.0935,0.0694,0.0713,0.0606,,0.0765,
V220P,0.0813,0.11,,0.063,0.0697,0.0579,0.0549,0.0556,0.0853,0.0657,0.0511,,0.0631,,0.086,0.0714,0.061,0.0659,0.0636,0.0518
F6H,,0.104,,,,0.0639,0.0293,,0.1,0.0477,,0.0696,,0.0651,,,0.0607,0.108,,
N175F,0.0863,0.0822,0.061,0.0722,0.0784,,,0.0856,0.0868,0.0579,0.075,,0.0592,0.0726,0.075,0.0668,0.0603,0.0567,0.0907,0.0697
G202A,0.0628,0.0727,0.0566,0.0584,0.0851,0.069,0.0578,0.0611,0.0801,0.0632,0.05,0.0695,,,,0.0631,,0.0706,0.0703,
Y12K,,0.1,0.0467,0.0438,,0.0779,0.0515,0.0496,0.0956,0.0704,0.0505,0.0663,0.069,,0.0727,,0.0703,,0.0741,
Y12S,,0.0904,0.045,0.0602,0.0813,0.0735,0.0696,0.0426,0.0905,0.071,0.0472,0.07,0.0593,0.0704,0.071,0.0843,0.0582,,0.063,0.0602
Y12H,,0.141,0.0587,0.0657,0.113,0.082,0.0521,0.0574,0.105,0.0598,0.061,0.0547,0.0748,,0.0717,0.0783,0.053,0.0701,0.0676,
S201K,0.102,,,,0.0978,0.0737,0.049,0.0775,0.104,,0.0691,0.0704,,,0.101,,0.0594,,,
S171E,0.0534,0.0533,,0.058,,0.081,,0.0501,0.0622,0.0963,0.0615,0.0517,,0.0558,,0.0735,,,,
